Experimental data from the supplement of paper PMC4967469.
A lower IC50 marks a more sensitive line; a fit beyond the top or the lowest dose is shown as a bound at that dose. AUC is the area under the same curve over the 256-fold range up to the top dose, as a fraction; the more sensitive the line, the further below 1. For some assays here: The top dose, if marked as inferred, was calculated from the reported fits. For some assays here: Where an entry number is given, a second screen of the drug exists; the two often differ.

What was measured:
Experiment in all cases: Viability of human cancer cell lines after 72 h of drug (GDSC screen)
RDEA119 = compound: COc1cc(F)c(F)c(Nc2ccc(I)cc2F)c1NS(=O)(=O)C1(C[C@H](O)CO)CC1 [RDEA119]; conditions: top dose 5 µM, top dose inferred
Method: (§1)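 Human cancer cell lines in 384-well plates, medium with 10% serum, drug for 72 h over a 256-fold dose range (nine 2-fold or five 4-fold steps up to the top dose). Adherent lines were fixed and stained with the nucleic acid dye Syto60, suspension lines read with resazurin; signal relative to control wells, capped at 0 and 100%. One two-parameter sigmoid per drug and line, fitted in a mixed model over all curves with the slope shared within a line.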

OSU-03012 = compound: NCC(=O)Nc1ccc(-n2nc(C(F)(F)F)cc2-c2ccc3c(ccc4ccccc43)c2)cc1 [OSU-03012]; conditions: top dose 16 µM; top dose inferred
Method: as §1

5-Fluorouracil = compound: O=c1[nH]cc(F)c(=O)[nH]1 [5-Fluorouracil]; conditions: top dose 32 µM; top dose inferred
Method: as §1

AC220 = compound: CC(C)(C)c1cc(NC(=O)Nc2ccc(-c3cn4c(n3)sc3cc(OCCN5CCOCC5)ccc34)cc2)no1 [AC220]; conditions: top dose 1.024 µM; top dose inferred
Method: as §1

QS11 = compound: OC[C@H](Cc1ccccc1)Nc1nc(Oc2ccc3c(c2)CCC3)nc2c1ncn2Cc1ccc(-c2ccccc2)cc1 [QS11]; conditions: top dose 10.24 µM
Method: as §1

CUDC-101 = compound: C#Cc1cccc(Nc2ncnc3cc(OC)c(OCCCCCCC(=O)NO)cc23)c1 [CUDC-101]; conditions: top dose 5.12 µM; top dose inferred
Method: as §1

JNK-9L = compound: Fc1cc(-c2ccnc(Nc3ccc(-n4cnc(N5CCOCC5)n4)cc3)n2)cc(N2CCOCC2)c1 [JNK-9L]; conditions: top dose 5.12 µM; top dose inferred
Method: as §1

Cell Line	AUC (RDEA119; screen: GDSC drug entry 1014)	IC50 (RDEA119; screen: GDSC drug entry 1014) [µM]	AUC (RDEA119; screen: GDSC drug entry 1526)	IC50 (RDEA119; screen: GDSC drug entry 1526) [µM]	AUC (OSU-03012)	IC50 (OSU-03012) [µM]	AUC (5-Fluorouracil)	IC50 (5-Fluorouracil) [µM]	AUC (AC220)	IC50 (AC220) [µM]	AUC (QS11)	IC50 (QS11) [µM]	AUC (CUDC-101)	IC50 (CUDC-101) [µM]	AUC (JNK-9L)	IC50 (JNK-9L) [µM]
NCI-H1693 (lung adenocarcinoma, adherent)	0.885	> 5	0.79	3.98	0.897	> 16	0.97	> 32	0.971	> 1.02	0.837	> 10.2	0.433	0.188	0.794	4.25
NCI-H1694 (small cell lung carcinoma, suspension)	0.986	> 5	0.974	> 5	0.789	7.05	0.894	> 32	0.932	> 1.02	0.939	> 10.2	0.391	0.161	0.715	1.29
NCI-H1703 (lung adenocarcinoma, adherent)	0.97	> 5	0.966	> 5	0.87	> 16	0.965	> 32	0.691	0.249	0.955	> 10.2	0.844	4.93	0.602	0.65
NCI-H1755 (lung adenocarcinoma, adherent)	0.876	> 5	0.844	4.46	0.965	> 16	0.981	> 32	0.962	> 1.02	0.942	> 10.2	0.391	0.152	0.664	0.985
NCI-H1770 (non-small cell lung carcinoma, suspension)	0.988	> 5	0.992	> 5	0.737	4.27	0.864	22.4	0.992	> 1.02	0.875	7.92	0.615	0.636	0.572	0.49
NCI-H1781 (lung adenocarcinoma, adherent)	0.987	> 5	0.972	> 5	0.898	> 16	0.957	> 32	0.989	> 1.02	0.974	> 10.2	0.664	0.916	0.613	0.654
NCI-H1792 (lung adenocarcinoma, adherent)	0.744	1.44	0.579	0.503	0.869	12.4	0.98	> 32	0.984	> 1.02	0.974	> 10.2	0.912	> 5.12	0.704	1.12
NCI-H1793 (lung adenocarcinoma, adherent)			0.878	> 5	0.855	> 16	0.978	> 32	0.982	> 1.02	0.981	> 10.2	0.833	> 5.12	0.683	1.29
NCI-H1836 (small cell lung carcinoma, suspension)	0.987	> 5	0.986	> 5	0.863	> 16	0.872	> 32	0.984	> 1.02	0.967	> 10.2	0.537	0.409	0.805	2.89
NCI-H1838 (lung adenocarcinoma, adherent)	0.932	> 5	0.941	> 5	0.983	> 16	0.905	> 32	0.956	> 1.02	0.984	> 10.2	0.868	> 5.12	0.944	> 5.12
NCI-H1869 (lung squamous cell carcinoma, adherent)	0.787	2.49	0.882	> 5	0.775	7.15	0.954	> 32	0.978	> 1.02	0.979	> 10.2	0.805	2.98	0.654	0.908
NCI-H1944 (lung adenocarcinoma, adherent)	0.68	1.04	0.742	1.63	0.747	5.42	0.69	7.09	0.977	> 1.02	0.923	> 10.2	0.509	0.338	0.471	0.265
NCI-H1975 (lung adenocarcinoma, adherent)	0.773	2.23	0.826	3.62	0.738	5.35	0.772	14.2	0.983	> 1.02	0.983	> 10.2	0.708	1.36	0.438	0.212
NCI-H1993 (lung adenocarcinoma, adherent)	0.983	> 5	0.82	4.13	0.982	> 16	0.962	> 32	0.85	> 1.02	0.982	> 10.2	0.652	0.973	0.693	1.33
NCI-H2009 (lung adenocarcinoma, adherent)	0.685	1.06	0.813	2.9	0.611	2.05	0.926	> 32	0.986	> 1.02	0.912	> 10.2	0.905	> 5.12	0.527	0.381
NCI-H2023 (lung adenocarcinoma, adherent)	0.881	> 5	0.803	3.22	0.821	12.5	0.906	> 32	0.965	> 1.02	0.884	> 10.2	0.851	> 5.12	0.798	3.15
